Laboratory results from PubChem BioAssay AID624296 (National Center for Advancing Translational Sciences (NCATS), 2012).
The campaign covered roughly 350,000 compounds. About 9,900 (2.8%) were called active. Inconclusive means that the source gave no clear call. Such entries were picked first, then a sample of the others. Calls follow the shape of the dose curve; as a rule, active = well fitted activation curve with a large enough effect; inconclusive = small, poorly fitted or top-dose-only effect; inactive = no such curve, though single readings can be large or run the other way. Potencies of inconclusive entries are left out as doubtful fits.

experiment: A quantitative high throughput screen for small molecules that induce DNA re-replication in MCF 10a normal breast cells.; also: nearly all actives have a fitted effect of over 50% in size; as to activity, positive = re-replication: % of control where 0% means no effect; conditions: MCF 10A DNA re-replication, Hoechst nuclear intensity, 48 h; activity, positive = re-replication: at 46.1 µM (top of the series)
Potency is read from the fitted curve at half-maximal effect; tags tell the direction and shape of the fitted curve.

| SMILES | activity, positive = re-replication | Potency |
| --- | --- | --- |
| CCOC(=O)c1ccc(NC(=S)N(CCCN2CCCCC2)Cc2ccco2)cc1 | inactive: -0.483% |  |
| CCOc1ccc(S(=O)(=O)NCc2ccccn2)cc1NC(=O)c1ccccc1F |  | inconclusive [activator, full curve, poor fit] |
| CCc1ccccc1NS(=O)(=O)c1ccc2[nH]cc(C(=O)NC3CCCC3)c(=O)c2c1 |  | inconclusive [activator, partial curve, poor fit] |
| Clc1ccc(OCc2nn3c(-c4ccccc4)nnc3s2)c(Cl)c1 |  | inconclusive [activator, partial curve, poor fit] |
| O=C(Nc1ccccc1)C1=C[C@H](c2coc3ccccc3c2=O)C[C@H](OCc2ccc(CO)cc2)O1 |  | inconclusive [activator, partial curve, poor fit] |
| CC/C(=N\NC(=O)c1ccncc1)C12CC3CC(CC(C3)C1)C2 | inactive: 0.556% |  |
| CCn1cnc2cc(NCc3ccncc3)ccc21 |  | active: 14.6 µM |
| COC(=O)CCCCCN1C(=O)NC(C2CC2)C(C(=O)OCc2ccccc2)=C1C (stereo not given) | inactive: 45.6% |  |
| Cc1cc(=O)n(-c2ccc3ccccc3n2)[nH]1 |  | inconclusive [activator, full curve, poor fit] |
| COc1c(Br)cc(C(N)=O)cc1OCc1ccccc1 |  | inconclusive [activator, full curve, poor fit] |
| Cc1cc(C)c(O)c(-c2n[nH]c3c2C(c2cccc(O)c2)N(Cc2ccco2)C3=O)c1 (stereo not given) |  | inconclusive [activator, single point] |
| BrC(=C\c1ccccc1)/C=N/n1cnnc1 |  | active: 16.4 µM |
| Cc1cc(NC(=O)c2ccc(Br)o2)ccc1NC(=O)c1ccco1 | inactive: -3.03% |  |
| Cc1ccnc2c1ccc1cccnc12 |  | inconclusive [activator, partial curve] |
| Cc1ccc2c(c1)N(CC(=O)Nc1ncccc1C)C(=O)C(C(C)C)O2 (stereo not given) | inactive: -5.66% |  |
| COc1cccc(/C=C/C(=O)OCC(=O)Nc2cc(C(F)(F)F)ccc2Cl)c1 |  | inconclusive [activator, full curve] |
| CN(C)S(=O)(=O)c1ccc(Cl)c(C(=O)Nc2ccc(S(=O)(=O)N3CCOCC3)cc2)c1 |  | inconclusive [activator, partial curve, poor fit] |
| COCCN(C(=O)CSc1ncn[nH]1)c1c(N)n(Cc2ccccc2)c(=O)[nH]c1=O | inactive: -1.02% |  |
| CSc1nc(C(C)C)ccc1CNC(=O)CC(C)c1ccccc1 (stereo not given) |  | inconclusive [activator, partial curve, poor fit] |
| CC(C)OC(=O)NCCOC(=O)Nc1ccc(Cl)cc1 | inactive: -5.21% |  |
| O=C(N/N=C/C=C/c1ccccc1)C1CC1c1ccccc1 (stereo not given) |  | inconclusive [activator, single point] |
| COc1ccc(N2CCN(CCCNC(=O)C3CCC(CNc4nc(=S)[nH]c5ccccc45)CC3)CC2)cc1 (stereo not given) |  | inconclusive [activator, single point] |
| CC(C)N(C(=O)CSc1nn2c(=O)c(C(C)(C)C)nnc2s1)c1ccccc1 | inactive: -0.993% |  |
| O=C(C1=C(O)/C(=C/c2ccc(O)cc2)CCC1)C(F)(F)F |  | inconclusive [activator, single point] |

| SMILES | activity, positive = re-replication | Potency |
| --- | --- | --- |
| CC1Cc2ccccc2N1S(=O)(=O)c1cccc(C(=O)NNC(=O)c2ccccc2F)c1 (stereo not given) |  | inconclusive [activator, single point] |
| C=C(C)CN=C1SC(C(=O)Nc2sc3c(c2C(=O)OC)CCC3)C(N)=C1C(N)=O (stereo not given) |  | active: 4.11 µM |
| Cc1ccc(CNc2ccccc2C(=O)O)s1 | inactive: 8.3% |  |
| Nc1c2c(nc3ccn(Cc4ccccc4)c(=O)c13)CCC2 |  | inconclusive [activator, single point] |
| COc1ccc(CNC(=O)c2ccc3c(=O)n(-c4ccccc4)c(=O)[nH]c3c2)cc1 | inactive: -2.67% |  |
| COc1cccc2c1C(=O)c1ccc3ccccc3c1C2=O | inactive: -8.14% |  |
| Cc1ccc(N(C(=O)C(F)(F)F)C(C(=O)NC2CCCCC2)c2cccs2)cc1 (stereo not given) |  | inconclusive [activator, single point] |
| CCC1CCCCN1CCCNC(=O)Cn1ncc2c(C)n(Cc3ccccc3Cl)c(C)c2c1=O (stereo not given) | inactive: 16.1% |  |
| Cc1cc(C)nc(SCc2ccc(C(=O)NNC(=O)Nc3cccc(Cl)c3)cc2)n1 |  | inconclusive [activator, partial curve, poor fit] |
| CCCCSc1ccc2nc(-c3ccc(C#N)cc3)cn2c1 |  | inconclusive [activator, partial curve, poor fit] |
| Cc1onc(-c2c(F)cccc2Cl)c1C(=O)N(C)C1CCCCC1 | inactive: -17.6% |  |
| Clc1ccc(Cn2ncc3c(NCc4ccccc4)ncnc32)cc1 |  | active: 6.51 µM |
| Nc1c(C(=O)Nc2ccc3c(c2)OCCO3)nnn1Cc1ccccc1 |  | inconclusive [activator, single point] |
| COc1ccccc1NC(=O)c1sc(NC(=O)c2ccco2)c(C#N)c1C |  | active: 16.4 µM |
| OCC1(Cc2ccc(F)cc2F)CCCN(Cc2ccc(Cl)cc2)C1 (stereo not given) |  | inconclusive [activator, single point] |
| COc1ccc(N(Cc2ccccc2)S(=O)(=O)c2cccc(C(=O)Nc3ccccn3)c2)cc1 |  | inconclusive [activator, full curve, poor fit] |
| CCOC(=O)Cn1c(=NC(=O)c2cc(-c3cccs3)nc3ccccc23)sc2cc(S(N)(=O)=O)ccc21 |  | active: 8.2 µM |
| CCN(c1ccccc1)S(=O)(=O)c1cc(C(=O)Nc2cccc(Cl)c2)ccc1F |  | inconclusive [activator, single point] |
| CC(C)Oc1ccc(Br)cc1C(=O)N/N=C/c1c[nH]c2ccccc12 |  | inconclusive [activator, single point] |
| CCc1ccc2[nH]c(=O)c(C(c3nnnn3CC3CCCO3)N3CCCc4ccccc43)cc2c1 (stereo not given) |  | inconclusive [activator, single point] |
| CCC(=O)c1ccc(OCC(=O)Nc2cc(S(=O)(=O)N3CCCCC3)ccc2N2CCN(CC)CC2)cc1 | inactive: 21.6% |  |
| Cc1cc(SCC(=O)OC/C(O)=C(\C#N)c2nc3ccccc3[nH]2)c(C)cc1Br | inactive: 10.9% |  |
| CN1C(=O)N(C)C2(c3ccccc3)NC(=O)NC12c1ccccc1 (stereo not given) | inactive: 9.94% |  |
| O=C(Nc1nc2ccccc2s1)c1ccccc1[N+](=O)[O-] |  | active: 0.731 µM |

| SMILES | activity, positive = re-replication | Potency |
| --- | --- | --- |
| Cc1cc(C)c(NS(=O)(=O)c2ccc3c(c2)NC(=O)CCS3)c(C)c1 | inactive: 9.11% |  |
| Cc1csc(NC(=O)c2c(-c3c(F)cccc3Cl)noc2C)n1 |  | inconclusive [activator, single point] |
| COc1ccc(C2=CC(=O)C[C@H](COCc3ccccc3)N(C(=O)OC(C)(C)C)O2)cc1 |  | active: 23.1 µM |
| COc1ccc(NC(=O)CN(C)C(=O)/C=C/c2ccc(OCc3ccccc3)cc2)cc1 |  | inconclusive [activator, single point] |
| C=C1C(=O)OC2C=C(CO)CCC=C(CO)CC(OC(=O)C(C)C)C12 (stereo not given) |  | active: 10.3 µM |
| Cc1ccc2c(CSc3nc4ccccc4c(=O)n3CCCO)cc(=O)oc2c1C |  | inconclusive [activator, single point] |
| O=c1c2ccccc2oc2cc(-c3ccc(CN4CCOCC4)cc3)ccc12 |  | inconclusive [activator, single point] |
| Cc1ccc(/C=C/C(=O)N2CC(C)CC(C)C2)o1 (stereo not given) |  | active: 23.1 µM |
| Cc1nn(-c2ccccc2)c2nc(-c3ccccc3)cc(C(=O)N3CCOCC3)c12 | inactive: 23.5% |  |
| COc1ccc(/C(C)=N/OC/C(O)=C(\C#N)c2nc3ccccc3[nH]2)c(OC)c1 |  | inconclusive [activator, single point] |
| O=C(NCCC1=CCCCC1)C1CCC(CNc2nc(=S)[nH]c3ccccc23)CC1 (stereo not given) |  | active: 25.9 µM |
| CCCN(CC(=O)Nc1ccccc1OC)C(=O)c1ccc2c(c1)NC(=O)C(C)S2 (stereo not given) | inactive: 1.11% |  |
| O=C(Nc1nnc(/C=C/c2ccccc2)s1)c1ccco1 |  | inconclusive [activator, single point] |
| CCOC(=O)N1CCN(Cc2cc(=O)oc3ccc4ccccc4c23)CC1 |  | inconclusive [activator, partial curve, poor fit] |
| COc1ccc(C)cc1N(CC(=O)NC1CCCC1)C(=O)Cn1nnc(-c2ccc(C)o2)n1 | inactive: 24.7% |  |
| COC(=O)c1ccc(OCc2cc(=O)n3ccsc3n2)cc1 |  | inconclusive [activator, full curve, poor fit] |
| COc1ccc(CNC(=O)C(c2ccc(C)o2)N(C(=O)c2csnn2)c2ccc(C(C)C)cc2)cc1 (stereo not given) |  | inconclusive [activator, partial curve, poor fit] |
| O=C(O)c1ccc(Oc2ccc(C(F)(F)F)cn2)cc1 | inactive: -6.95% |  |
| O=C(Cn1nc([N+](=O)[O-])nc1Br)NC(c1ccccc1)c1ccccc1 |  | inconclusive [activator, partial curve, poor fit] |
| COc1ccc(NC(=S)NCCSc2ccc(Cl)cc2)c(OC)c1 |  | inconclusive [activator, partial curve, poor fit] |
| Cc1nc(NC(=O)c2ccccc2)sc1-c1csc(N)n1 |  | active: 16.4 µM |
| Cc1[nH]c2ccc(C(=O)NCC(C)(C)N3CCOCC3)cc2c1C |  | inconclusive [activator, partial curve, poor fit] |
